# Measured values reported in PubChem BioAssay AID686978 (National Center for Advancing Translational Sciences (NCATS), 2013).
# In all, about 420,000 compounds went through this assay and about 64,000 (15%) were called active. Inconclusive results, whose numbers are uncertain, are shown with a selection of clear calls. The call rests on the fitted dose curve; in most records, active means well fitted inhibition curve with a large enough effect; inconclusive means small, poorly fitted or top-dose-only effect; inactive means flat fitted curve, though single readings scatter. Potencies of inconclusive entries are left out as doubtful fits.
# Test: qHTS for Inhibitors of human tyrosyl-DNA phosphodiesterase 1 (TDP1): qHTS in cells in absence of CPT; further: nearly all actives have a fitted effect of over 55% in size
# Conditions: DT40 Tdp1-/- hTDP1 cells, no CPT, ATP luminescence, 48 h; activity change, negative = growth inhibition: at 46.2 µM (top of the series) unless noted
# Method in brief: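 Compound effects on proliferation are scored in DT40 Tdp1-/-;hTDP1 cells in the absence of CPT. ATP levels (CellTiter-Glo luminescence) are recorded after a ≥48 hr, 37 °C incubation.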
# On the % scale 0 is the no-effect control and ±100 the full control effect; potency means the concentration at half of the fitted maximal effect; tags describe the fitted curve by direction and shape.
Structure (SMILES),Potency,"activity change, negative = growth inhibition"
Cc1ccc(-c2csc(N3CCC[C@@H]3C(=O)NCCn3c(C(F)(F)F)nc4ccccc43)n2)cc1,"inconclusive [inhibitor, single point]",–
CCCNC(=O)CSc1nnc(-c2ccco2)n1C,active: 13 µM,–
COc1ccccc1CN1CCN(Cc2cc(OC)c(OC)cc2OC)CC1,inactive,–
CC(C(=O)Nc1ccc2nccnc2c1)N1C(=O)C2C3C=CC(C3)C2C1=O (stereo unspecified),"inconclusive [inhibitor, single point]",–
O=c1c2sccc2n(Cc2ccc(F)cc2)c(=O)n1-c1ccc(F)cc1,"inconclusive [inhibitor, partial curve, poor fit]",–
CCCCn1c(-c2cccs2)nc2oc3ccccc3c(=O)c2c1=O,"inconclusive [inhibitor, single point]",–
Cn1cc(C(=O)NC2CCCCCCC2)c(=O)c2cc(S(=O)(=O)N3CCCC3)ccc21,"inconclusive [inhibitor, single point]",–
CC(C)COc1cccc(C(=O)NC(=S)NCc2cccnc2)c1,"inconclusive [inhibitor, single point]",–
CCOC(=O)c1sc(N)nc1C(F)(F)F,"inconclusive [inhibitor, single point]",–
CC(=O)c1c(O)c2cccc3c2n(c1=O)CCC3,inactive,–
Cc1ccc2c(c1)c(-c1ccccc1)nc1nnnn12,"inconclusive [inhibitor, single point]",–
Cc1c(C(=O)N2CC(C)OC(C)C2)[nH]c2ccc(Br)cc12 (stereo unspecified),"inconclusive [inhibitor, single point]",–
COc1ccc(OC)c(-c2cc(C(=O)Nc3cc(C)n(Cc4ccc(Cl)cc4)n3)no2)c1,"inconclusive [inhibitor, full curve]",–
Cc1cccc(C)c1-n1c(C)cc(/C=N/NC(=O)CSc2ncccn2)c1C,"inconclusive [inhibitor, single point]",–
CC1CCc2c(sc(NC(=O)COc3ccccc3)c2C(=O)Nc2ccccc2Cl)C1 (stereo unspecified),inactive,–
CC(Oc1ccc(F)cc1F)C(=O)/C=C/N(C)C (stereo unspecified),inactive,–
CCn1c(C)nc2cc(C(=O)NNC(=S)NC(=O)c3ccc(OC)cc3)ccc21,"inconclusive [inhibitor, single point]",–
CCOc1ccc(/C=N/NC(=O)Cc2csc(Nc3cccc(C(F)(F)F)c3)n2)c(OCC)c1,"inconclusive [inhibitor, single point]",–
Cc1sc2ncnc(N3CCC(C(=O)Nc4ccc(S(N)(=O)=O)cc4)CC3)c2c1C,active: 14.6 µM,–
Cn1c(CSCc2ccc(Cl)cc2Cl)n[nH]c1=S,"inconclusive [inhibitor, single point]",–
Cc1cccc(/C=N/n2c(-c3ccccc3)n[nH]c2=S)c1O,inactive,–
Cc1ccc(CSCC(=O)N2CCN(c3cc(Cl)ccc3C)CC2)cc1,"inconclusive [inhibitor, single point]",–
CCC(C)Sc1ccc(-c2nc3cnccn3c2NC2CCCCC2)cc1 (stereo unspecified),active: 16.4 µM,–

Structure (SMILES),Potency,"activity change, negative = growth inhibition"
COc1ccc(/C=C/C(=O)NC(=S)NNC(=O)Cc2cccs2)cc1OC,"inconclusive [inhibitor, single point]",–
Cc1ccc2nc(N3CCN(CCO)CC3)nc(-c3ccccc3)c2c1,"inconclusive [inhibitor, single point]",–
CCOC(=O)N1CCC(NC(=O)c2cc(S(=O)(=O)NCCc3ccccc3)ccc2F)CC1,"inconclusive [inhibitor, partial curve, poor fit]",–
Cc1[nH]c2ccccc2c1C(=O)C(=O)NC1CC(=O)N(c2cccc(F)c2)C1 (stereo unspecified),"inconclusive [inhibitor, single point]",–
Cc1ccc2sc(N(CCCN(C)C)C(=O)c3ccc(S(=O)(=O)N4CCCCCC4)cc3)nc2c1C,"inconclusive [inhibitor, single point]",–
CCn1c(SCC(N)=O)nnc1-c1ccc2[nH]c(C)c(C)c2c1,inactive,–
COC(=O)c1nnn(-c2nonc2N)c1CN1CCc2ccccc21,"inconclusive [inhibitor, single point]",–
COCC1CCCCN1C(=O)c1ccc(OC)c(OC2CCN(C(C)C)CC2)c1 (stereo unspecified),inactive,–
O=C(NCc1ccc(F)cc1)c1cc2c(s1)CCCC2,inactive,–
CCCCN(C(=O)NC(=O)Nc1ccccc1OC)S(C)(=O)=O,"inconclusive [inhibitor, single point]",–
Cc1ccc(C)c(S(=O)(=O)N2CCC(c3nc4c(nnn4Cc4ccc5c(c4)OCCO5)c(=O)[nH]3)CC2)c1,"inconclusive [inhibitor, single point]",–
O=C1CCN(S(=O)(=O)c2cccs2)c2ccc(C(F)(F)F)cc2N1,inactive,–
CCC(=O)Nc1ccc(S(=O)(=O)NCc2ccco2)cc1,inactive,–
C=Cn1cc[n+](CC(=O)c2cccs2)c1,inactive,–
CCCCOc1ccc(-c2cc3c(=O)n(CC(=O)Nc4ccc(Cl)cc4Cl)ccn3n2)cc1,inactive,–
CC(C)C(CCNC(=O)CC(Cc1ccccc1)c1ccco1)c1ccco1 (stereo unspecified),"inconclusive [inhibitor, single point]",–
Cc1noc(C)c1C(=O)N1CCC1(C)C(=O)NS(=O)(=O)c1cccc(OC(F)F)c1 (stereo unspecified),inactive,–
CCOC(=O)[C@@H]1[C@H]2COc3cc(OC)ccc3[C@@H]2N2C(=O)N(c3ccc(OC)cc3)C(=O)[C@@]12C,inactive,–
CCOC(=O)C(Cc1ccc(NC(=O)/C(=C\c2ccccc2)NC(=O)c2ccccc2)cc1)N1C(=O)c2ccccc2C1=O (stereo unspecified),active: 8.2 µM,–
Cc1cccc(N(C(=O)c2snc(C(N)=O)c2N)C(C(=O)NCc2ccccc2)c2ccncc2)c1 (stereo unspecified),–,inconclusive: -30.9% [inhibitor]
Cc1cc(-n2c(C)cc(C(=O)COc3cc(F)ccc3[N+](=O)[O-])c2C)no1,active: 14.6 µM,–
Cc1nc2ccccc2c(=O)n1/N=C/c1ccccc1,inactive,–
Cc1[nH]c2ccccc2c1C(=O)CSc1nc2ncc(Cl)cc2[nH]1,"inconclusive [inhibitor, partial curve]",–
